{"source": "PubChem BioAssay AID686978", "about": "(National Center for Advancing Translational Sciences (NCATS), 2013)", "note": "The campaign covered roughly 420,000 compounds. About 64,000 (15%) were called active. The shares of active, inactive and inconclusive entries below differ from those in the screen. The call rests on the fitted dose curve; in most records, active means well fitted inhibition curve with a large enough effect; inconclusive means small, poorly fitted or top-dose-only effect; inactive means flat fitted curve, though single readings scatter. No potency is given beside an inconclusive call; the fits are too rough."}
{"assay": "qHTS for Inhibitors of human tyrosyl-DNA phosphodiesterase 1 (TDP1): qHTS in cells in absence of CPT; further: nearly all actives have a fitted effect of over 55% in size; further: potency means the concentration at half of the fitted maximal effect; tags describe the fitted curve by direction and shape; on activity change, negative = growth inhibition: on the % scale 0 is the no-effect control and ±100 the full control effect", "settings": "DT40 Tdp1-/- hTDP1 cells, no CPT, ATP luminescence, 48 h; activity change, negative = growth inhibition: at 46.2 µM (top of the series) unless noted", "method_in_brief": "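Luminescent ATP content (CellTiter-Glo) served as the growth readout. Knockout chicken DT40 cells expressing human TDP1 were exposed to compounds without camptothecin for a minimum 48 hr at 37 °C.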"}
{"compound": "COc1ccc2cc(C(C)C(=O)OC(C)C)ccc2c1", "note": "(centres undefined)", "activity change, negative = growth inhibition": "inactive: -7.04%"}
{"compound": "COc1ccc(-c2cc(-n3c(C(F)(F)F)nc4ccccc43)n(CCC#N)n2)cc1", "Potency": "inconclusive [inhibitor, single point]"}
{"compound": "S=c1nc(-c2ccccc2)c(-c2ccccc2)n[nH]1", "activity change, negative = growth inhibition": "inactive: 1.82%"}
{"compound": "CN1CCC(OC(=O)Cc2ccc(Cl)cc2)CC1", "activity change, negative = growth inhibition": "inactive: 6.84%"}
{"compound": "CN(C)c1nc(N/N=C/c2ccccc2O)nc(Nc2ccc(F)cc2)n1", "Potency": "active: 0.58 µM"}
{"compound": "COc1ccccc1CNC(=O)CSc1nc2c(oc3ccccc32)c(=O)n1CC1CCCO1", "note": "(centres undefined)", "Potency": "inconclusive [inhibitor, single point]"}
{"compound": "COc1ccc(CNC(=O)C(C)n2nc(C)c3c(C)n(-c4ccc(C)cc4)nc3c2=O)cc1", "note": "(centres undefined)", "Potency": "inconclusive [inhibitor, single point]"}
{"compound": "O=C(NCc1ccccc1)C1=C[C@@H](c2ccc3c(c2)OCO3)C[C@@H](OCc2ccc(CO)cc2)O1", "Potency": "inconclusive [inhibitor, single point]"}
{"compound": "Cc1cc(/C=C(\\C#N)C(=O)OCC(=O)NC(=O)NC(C)(C)C)c(C)n1CCC(C)C", "Potency": "inconclusive [inhibitor, single point]"}
{"compound": "COc1ccc(C(=Cc2ccccc2[N+](=O)[O-])C(=O)O)cc1", "activity change, negative = growth inhibition": "inactive: -8.21%"}
{"compound": "COc1cccc(C(Nc2ccccc2)c2ccc3ccc(C)nc3c2O)c1", "note": "(centres undefined)", "Potency": "active: 5.17 µM"}
{"compound": "Cn1c(C(=O)N2CCN(c3ccc(Cl)cc3)CC2)cc2c(=O)[nH]c3ccccc3c21", "Potency": "active: 20.6 µM"}
{"compound": "C/C=C/c1ccc(Oc2nnnn2-c2ccc(C(N)=O)cc2)c(OC)c1", "Potency": "active: 20.6 µM"}
{"compound": "CCOc1ccc(-n2c(-c3ccc(OC)cc3)cc3c2CC(C)(C)CC3=O)cc1", "Potency": "inconclusive [inhibitor, single point]"}
{"compound": "Cc1nc(N)nc(Nc2ccc(C#N)cc2)c1Br", "Potency": "inconclusive [inhibitor, partial curve, poor fit]"}
{"compound": "CC1CN(c2ccc([N+](=O)[O-])cc2C#N)CC(C)O1", "note": "(centres undefined)", "activity change, negative = growth inhibition": "inactive: -6.55%"}
{"compound": "Cc1c(C(C)C)c(=O)n(-c2ccc(S(=O)(=O)NC3CC3)cc2)n1C", "Potency": "active: 10.3 µM"}
{"compound": "NC(=O)c1ccccc1OCc1nnc(-c2ccccc2Br)o1", "Potency": "active: 29.1 µM"}
{"compound": "Cc1ccc(C)c(Cn2cc(CCC(=O)NC3CCCCC3)c3ccccc32)c1", "Potency": "inconclusive [inhibitor, single point]"}
{"compound": "CCN(CC)CCNc1ncnc2c1sc1nc(N3CCOCC3)c3c(c12)CCCC3", "Potency": "inconclusive [inhibitor, single point]"}
{"compound": "C/C(=N\\NC(=O)c1cc(-c2ccco2)nc2ccccc12)c1cccnc1", "Potency": "inconclusive [inhibitor, partial curve]"}
{"compound": "COc1cc(C2c3[nH]c4ccccc4c3CCN2Cc2cn(C)nc2C)ccc1F", "note": "(centres undefined)", "Potency": "inconclusive [inhibitor, single point]"}
{"compound": "Cc1nnc(SCC(=O)Nc2ccccc2)[nH]c1=O", "activity change, negative = growth inhibition": "inactive: -9.73%"}
{"compound": "Cc1ccc(C(=O)N2CCN(C)CC2)cc1[N+](=O)[O-]", "activity change, negative = growth inhibition": "inactive: 5.11%"}
{"compound": "COCCN1C=C(C(=O)OC)C(c2cc(Br)c(OC)c(OC)c2)C(C(=O)OC)=C1", "Potency": "inconclusive [inhibitor, single point]"}
{"compound": "Cc1ccccc1NS(=O)(=O)c1cc(C(=O)Nc2cccc([N+](=O)[O-])c2)ccc1C", "Potency": "inconclusive [inhibitor, single point]"}
{"compound": "COC(=O)CN1C(=O)C(O)(CC(=O)c2ccc(Br)cc2)c2ccccc21", "note": "(centres undefined)", "Potency": "inconclusive [inhibitor, single point]"}
{"compound": "COc1cc(/C=C2/C(=O)NN(c3ccc(F)cc3)C2=O)cc(Cl)c1O", "Potency": "inconclusive [inhibitor, single point]"}
{"compound": "CCOC(=O)[C@]12CCC=C1N(Cc1ccc(Cl)cc1Cl)C(=O)[C@H](CC(=O)NCc1cccc(C(F)(F)F)c1)C2", "Potency": "inconclusive [inhibitor, single point]"}
{"compound": "Cn1c(NCc2ccccc2F)nc2ccccc21", "Potency": "inconclusive [inhibitor, partial curve, poor fit]"}
{"compound": "CCCCn1c(N)c(N(CCC(C)C)C(=O)COC(=O)c2ccc(CC)cc2)c(=O)[nH]c1=O", "activity change, negative = growth inhibition": "inactive: 6.86%"}
{"compound": "Cc1ccsc1/C=C/c1ccc2ccccc2n1", "Potency": "inconclusive [inhibitor, single point]"}
{"compound": "Cn1c2ccccc2c(=O)c2ccc(NCc3ccc4c(c3)OCO4)cc21", "Potency": "active: 14.6 µM"}
{"compound": "CCN(CC)c1ccc2c(c1)OC(N)=C(C#N)C2c1cccnc1", "note": "(centres undefined)", "Potency": "active: 0.0366 µM"}
{"compound": "Cc1ccc(NC(=O)N2CCC(c3nc4c(nnn4Cc4c(F)cccc4Cl)c(=O)[nH]3)CC2)cc1", "Potency": "inconclusive [inhibitor, single point]"}
{"compound": "O=C(CCNc1ccccc1)c1cccc([N+](=O)[O-])c1", "Potency": "active: 16.4 µM"}
{"compound": "O=S(=O)(c1ccc(Cl)nc1)N1CCC(Cc2ccccc2)CC1", "activity change, negative = growth inhibition": "inactive: 8.44%"}
{"compound": "COc1ccccc1N1CC(C(=O)OCC(=O)Nc2c(C)cccc2C)CC1=O", "note": "(centres undefined)", "activity change, negative = growth inhibition": "inactive: -8.76%"}
{"compound": "N=c1n(CCO)c2ccccc2n1CCOc1ccc(F)cc1", "activity change, negative = growth inhibition": "inactive: -82%"}
{"compound": "O=[N+]([O-])c1ccc(CS(=O)(=O)c2ccc(Cl)cc2)cc1", "activity change, negative = growth inhibition": "inactive: -21.9%"}
{"compound": "O=C(Nc1cccc(-c2csc(Nc3cccc(C(F)(F)F)c3)n2)c1)c1ccccc1", "Potency": "inconclusive [inhibitor, single point]"}
{"compound": "CCC(c1nnnn1-c1c(C)cccc1C)N1CCN(c2cccc(C(F)(F)F)n2)CC1", "note": "(centres undefined)", "Potency": "active: 14.6 µM"}
{"compound": "Cc1ccc(C(O)CN2C3=NCCN3c3ccccc32)cc1", "note": "(centres undefined)", "Potency": "active: 16.4 µM"}
{"compound": "CN1CCN(c2ccc(CNC(=O)C3(C)Cc4c(-c5ccccc5)ccnc4O3)cc2)CC1", "note": "(centres undefined)", "Potency": "active: 20.6 µM"}
{"compound": "COc1ccc(OC)c(Nc2cc(C(=O)NCc3ccccc3)c3ccccc3n2)c1", "Potency": "inconclusive [inhibitor, full curve]"}
{"compound": "CC(=O)c1cccc(-n2c(CCC(=O)O)ccc2-c2ccccc2)c1", "Potency": "inconclusive [inhibitor, partial curve]"}
{"compound": "O=C(Nc1ccc(Cn2cccn2)cc1)c1ccc(COc2cccc(Br)c2)cc1", "Potency": "inconclusive [inhibitor, single point]"}
{"compound": "CCOC(=O)C1CCN(C(=O)c2ccc3c(c2)sc2nc(-c4ccc(OCC)cc4)cn23)CC1", "Potency": "active: 6.51 µM"}
{"compound": "O=C(NCc1ccco1)C1Cc2ccccc2CN1C(=O)c1ccco1", "note": "(centres undefined)", "Potency": "inconclusive [inhibitor, single point]"}
{"compound": "COC(=O)[C@]1(C)N[C@H](CN(C)C(=O)c2ccc(C(C)(C)C)cc2)[C@@H]2C(=O)N(Cc3ccccc3)C(=O)[C@@H]21", "Potency": "inconclusive [inhibitor, single point]"}
{"compound": "CC(OC(=O)c1ccc([N+](=O)[O-])o1)C(=O)Nc1nc(-c2ccc(F)c(F)c2)cs1", "note": "(centres undefined)", "Potency": "active: 20.6 µM"}
{"compound": "CCOC(=O)CN1C(=O)S/C(=C/c2ccc3c(c2)n(C)c(=O)n3C)C1=O", "Potency": "inconclusive [inhibitor, single point]"}
{"compound": "COc1ccc(-c2nc(SCC(=O)NC3CCCC3)c(-c3ccccc3)[nH]2)cc1OC", "Potency": "inconclusive [inhibitor, single point]"}
{"compound": "CCN(CCCNC(=O)C1CCC(=O)N1Cc1ccccc1Cl)c1cccc(C)c1", "note": "(centres undefined)", "Potency": "active: 23.1 µM"}
{"compound": "COc1ccc(CNC(=O)c2cnn(-c3ccc(C)cc3)c2C2CCN(C(=O)OC(C)(C)C)CC2)cc1", "Potency": "active: 20.6 µM"}
{"compound": "COC(=O)c1ccc(C(=O)Nc2cc(Cl)ccc2Cl)cc1NC(=O)c1ccc(N(C)C)cc1", "Potency": "inconclusive [inhibitor, partial curve]"}
{"compound": "COc1ccc(-c2cn(-c3ccc(C)cc3C)c(=O)[nH]2)cc1OC", "Potency": "inconclusive [inhibitor, single point]"}
{"compound": "O=C(c1ccccc1)N(Cc1nc2ccccc2c(=O)[nH]1)C1CCCCC1", "Potency": "inconclusive [inhibitor, partial curve, poor fit]"}
{"compound": "CC1=C(C#N)C(C(F)(F)F)(C(F)(F)F)N=C(c2ccco2)N1", "Potency": "active: 16.4 µM"}
{"compound": "CCOc1ccccc1C(=O)N1CCc2cc(OC)c(OC)cc2C1COc1ccc2c(C)cc(=O)oc2c1", "note": "(centres undefined)", "Potency": "active: 9.2 µM"}
{"compound": "CCc1cc(C(=O)N(CC(C)C)c2c(N)n(Cc3ccccc3)c(=O)[nH]c2=O)sc1C", "activity change, negative = growth inhibition": "inactive: -25.5%"}
{"compound": "CCc1c(C)nc2cc(-c3cc(OC)cc(OC)c3)nn2c1N1CCN(CCN2CCOCC2)CC1", "Potency": "active: 16.4 µM"}
{"compound": "NC(=O)c1c(NC(=O)Cn2cc([N+](=O)[O-])cn2)sc2c1CCCC2", "Potency": "inconclusive [inhibitor, full curve]"}
{"compound": "COCCNC(=O)/C(C#N)=C/c1nc(N(C)C)n(-c2ccc(F)cc2)c1Cl", "Potency": "inconclusive [inhibitor, single point]"}
{"compound": "COc1cc(/C=N/Nc2cc(C)nc(NS(=O)(=O)c3ccc(C)cc3)n2)ccc1O", "Potency": "inconclusive [inhibitor, single point]"}
{"compound": "CCCCNC(=O)C1(C)CCN1C(=O)c1ccc(OC)c(C(F)(F)F)c1", "note": "(centres undefined)", "Potency": "inconclusive [inhibitor, partial curve]"}
{"compound": "CC1CCCCN1C(=O)Cn1cc(C(=O)c2ccco2)c2ccccc21", "note": "(centres undefined)", "Potency": "inconclusive [inhibitor, partial curve]"}
{"compound": "Cc1ccc(OCCSc2nc3ccccc3n2CCC(=O)O)cc1C", "Potency": "inconclusive [inhibitor, partial curve]"}
{"compound": "Cc1noc(C)c1NC(=O)Nc1cccc2c1O[C@H](CN(C)C(=O)Nc1ccc3c(c1)OCO3)[C@@H](C)CN([C@H](C)CO)C2=O", "activity change, negative = growth inhibition": "inactive: 2.99%"}
